First the molecules themselves.
B1: LINE1-mini (parent)
chain: GGCAGAGCUCAACACAGCGUGGCAAAGUGGCUGUGGCUAGACUGCC

Read counts are not given, so values of variants with three or more changes are uncertain.

Variants of B1 are the subject of this series. Nature of the series: self-cleavage, relative activity (ratio to wild type); higher = more cleavage; in vitro, sequencing; the parent is a self-cleaving ribozyme.
Consider GGCAUAGCUAAACACAGCCUGGCAUAGUGGCUGUGGCUAGACUGCC [G5U C10A G19C A25U], for which the self-cleavage was determined as 0.03.

Consider GGCAUAGCUAAACACAGAGUGGCAAAGUGGCUGUGGCUAGCCUGCA [G5U C10A C18A A41C C46A], for which the self-cleavage worked out at 0.03. Consider GGCAUAGCUGUACACAGGGUGGCAAAGUCGCUGUGGCUAGACUGCC [G5U C10G A11U C18G G29C], for which the self-cleavage was 0.01. Turning to GGCAUAGCUAAACACAGCGUGGCAAAGUGGCUGUGGCUAAACUGCC [G5U C10A G40A], the self-cleavage came to 0.02. The value for GGCAUAGCUCAACACAGCGUGGCAGAGUCGCUGUGGCUAGACUGCC [G5U A25G G29C] was 0.01. On to GGCAUAGCUCAACUCAGUGUGGCAAACUGGCUGUGGCUAGACUGCA [G5U A14U C18U G27C C46A], for which the self-cleavage is 0.01. On to GGCAUAGUUCAAGCCAGCGUGGCAAAGUGGCUGUGGCUAGACUGCC [G5U C8U C13G A14C], for which the self-cleavage was 0.07. The value for GGCAUAGCUAAACACACCGUGGCACAGUUGAUGUGGCUAGACUGCC [G5U C10A G17C A25C G29U C31A] was 0.07.

Take GGCAUAGCUCAACACAGCGUGGCGUAGUGGCUGUGGCUAGAAUGCC [G5U A24G A25U C42A]: the self-cleavage came to 0.03. With GGCAUAGCUCAACACAGCGUGGCAUAGUGGCUGGGGCUAGACUGCC [G5U A25U U34G] the figure was 0.05; with GGCAUAGAUACACACAGCGUGGCAAAGUGGCUGUGGCGAGACUGCC [G5U C8A C10A A11C U38G], 0. As for GGCAUAGACCAACACAGCGUGGCAAAGUGGCUGUGGCUAGACUGCC [G5U C8A U9C], the self-cleavage came out at 0.1.

In the case of GGCAUAGCUCAACACCGCGUGGCAAAGUGUCGGGGGCUAGACUGCC [G5U A16C G30U U32G U34G], the self-cleavage turned out to be 0.02. The value for GGCAUAGCUCAACACAGCGUGGCACAAUGGCUGUCGCUAGAGUGCC [G5U A25C G27A G35C C42G] was 0.02; that for GGCAUAGGUCAACACAGCGUGGUAAAGUGGCUGUGGCUAGACUGCC [G5U C8G C23U] was 0.16. With GGCAUAGCUCAACACAGCGUGGCUAAGUGUCUGUGGCUAGACUGCC [G5U A24U G30U] the figure was 0.05; with GGCAUAGCUCAACUCAGCGUGGCAAAGUGGCUGUGGCUAAACUGCU [G5U A14U G40A C46U], 0.04; with GGCAUAGCUCAACACAGCGUGGCAAAGUGGCUGUGGCUGGACUGCA [G5U A39G C46A], 0.02. The value for GGCAUAGCUCAACACAGCGUGGCGAAGUGGCUGCGGCUAGACUGCA [G5U A24G U34C C46A] was 0.02; that for GGCAUAGCUCAACACAGCGUGGCAUAGUGGCUAUGGCUAGACUGCC [G5U A25U G33A] was 0.04. GGCAUAGGUCAAAAGAGGGUGGGAAAGUGGCUGUGGCUAGAUUGCC [G5U C8G C13A C15G C18G C23G C42U]: the self-cleavage turned out to be 0.02. With GGCAUAGCUCAACACAGCGUGGCAACGUCGCUGUGGCUAGACUGCC [G5U A26C G29C] the figure was 0.04; with GGCAUAGCUCAACACUGCGUGGCAAAGUGGCUGUGUCUAGACUGCC [G5U A16U G36U], 0.03; with GGCAUAGAUCAACACAGCGUGGCAAAGUGGCUGUGGUUAGACUGCC [G5U C8A C37U], 0.31.

As for GGCAUAGCUCAACACUGCGUGGCAAAAUGGCUGUGGCUAGACUGCC [G5U A16U G27A], the self-cleavage amounted to 0.07. With GGCAUAGCUCAACUCACCGUGGCAAAGUGGCUGUGGCUAGACCGCC [G5U A14U G17C U43C] the figure was 0.04; with GGCAUAGCUAAACACAGCGUGGCACAGUGGCUGUGGCUAGACUGCC [G5U C10A A25C], 0.06; with GGCAUAGCUAAACACAGCGUGGCGAAGAGGCUGUGGCUAGACCGCC [G5U C10A A24G U28A U43C], 0.04. Turning to GGCAUAGCUCAACACAGCGUGGCUAAGUGGCUGUGGCUUGACUGCC [G5U A24U A39U], the self-cleavage came to 0.08. GGCAUAGUUCAACACAGGGUGGCAAAGUGGCUGUGGCUAGACUGCC [G5U C8U C18G]: the self-cleavage is 0.19.

As to GGCAUAGCUCAACACCGCGUGGCAAAGUGGCUGUGGUUAGUCUGCC [G5U A16C C37U A41U], the self-cleavage worked out at 0.02. Consider GGCAUAGCUGAACACUGCGUGGCAAAGUGGCAGUCGCUAGACUGCC [G5U C10G A16U U32A G35C], for which the self-cleavage was 0.01. For the variant GGCAUAGUUCAACACAGCGUGGUAAAGUGGCUGUGGCUAGUCAGCC [G5U C8U C23U A41U U43A], the self-cleavage was found to be 0.2. With GGCAUAGAUCAACACAGCGUGGCGAAGUGGCUGUGGCUAGACUGCC [G5U C8A A24G] the figure was 0.71. On to GGCAUAGCUCAACUUAGCCUGGCAAAGUGGCUGUGUCUAGACUGCC [G5U A14U C15U G19C G36U], for which the self-cleavage was 0.04.

Regarding GGCAUAGCUCAACACAGCGUGGCAAGGUGGCUGUGGGUGGACUGCC [G5U A26G C37G A39G], the self-cleavage came to 0.01. With GGCAUAGCUGAAUACAGCGUGGCAAAGUGGCUGUGGCUAGACUGCC [G5U C10G C13U] the figure was 0.01; with GGCAUAGCUAAACACAGCGUGGCAAAAUGGCUGUGGCUAGACUGCC [G5U C10A G27A], 0.01; with GGCAUAGAUCAACACAGCGUGGCAAAUUGGCUGUGGCUAGACUGCC [G5U C8A G27U], 0.68. With GGCAUAGCUCAACACCGCGUAGCAAAGUGGCUGUGGCUAGCCUGCC [G5U A16C G21A A41C] the figure was 0. The value for GGCAUAGCUAAACACAGCGUGGCAAAGUGGCUGUGGCUAGACUGCA [G5U C10A C46A] was 0; that for GGCAUAGCUCAACACUGCGUGGCAAAGUGGCUGUGGUUAGACUGCC [G5U A16U C37U] was 0.05. Turning to GGCAUAGCUCAACACAGCGUGGCUGAGUGGCUGUGGCUAGACUGCC [G5U A24U A25G], the self-cleavage came to 0.04. The value for GGCAUAGCUAAACACAUCGUGGCAAAGUGGAUAUGGAUAGACUGCC [G5U C10A G17U C31A G33A C37A] was 0.01; that for GGCAUAGGUCAACACAGCGUGACAAAGUGGCUGUGGCUAGACUGCC [G5U C8G G22A] was 0.03; that for GGCAUAGUUCAACACAGCGUGGCAAAGUGGCUUUGGCUCGACUGCC [G5U C8U G33U A39C] was 0.06. The value for GGCAUAGCUCAACUCAGCGUGGCAAAGUGGCUGUAACUAGACUGCC [G5U A14U G35A G36A] was 0.15; that for GGCAUAGCUCAACACGGCGUGGCAGAGUGGCUGUGGCUAGACUGCC [G5U A16G A25G] was 0.02. With GGCAUAGGUCAACACAGCGUUGCAAAGUGGCUGUGGCUAGACUUCC [G5U C8G G21U G44U] the figure was 0.02. For GGCAUAGCUCAACACUGCGUGGCAAAGUGGCUGGGGCUAUACUGCC [G5U A16U U34G G40U], the self-cleavage was determined as 0.01. Consider GGCAUAGGUCAACACAGCGUGGCAAAGUGGCUGAGGCUAGACCGCC [G5U C8G U34A U43C], for which the self-cleavage stood at 0. The value for GGCAUAGUUCAACACAGUGUGUCAAAGUGGCUCUGGCUAGACUGCC [G5U C8U C18U G22U G33C] was 0.18; that for GGCAUAGCUCAACGCAGCGUGACAAAGUGGCUGUGGCUAGACUGCC [G5U A14G G22A] was 0.43. With GGCAUAGCUAAACACAGCGUGGCAAAGUGGCUGUGGCUAGACUUCC [G5U C10A G44U] the figure was 0.01; with GGCAUAGCUCAACUCAGCGUGGCAAAUUGGCUGGGGCUAGACUGCC [G5U A14U G27U U34G], 0.03. As to GGCAUAGCUCAACGCAGCGUGGCAAAGUGGGUGUGGCUAGACUGAC [G5U A14G C31G C45A], the self-cleavage came to 0.01.

For the origin of these results see the RNAGym collection of RNA variant scans (doi:10.7554/elife.90254).
